Here are results for 69 compounds from the supplement of paper PMC4723716.

± gives the uncertainty stated by the source. The full ranking holds about 9,900 compounds; the median of “viability index relative to DMSO control” is about 1, and the lowest 2% start at about 0.85. Some of the results follow.

In the test the test system is Plasmodium falciparum NF54 stage V gametocytes. The test can be described thus: viability index relative to DMSO control (fraction); higher = less gametocyte killing. Conditions: 2.5 µM, library set: Broad Institute DOS, incubation time: 72 h. The protocol:
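Broad DOS informer set and blood-stage-active DOS compounds screened in duplicate at 2.5 µM against P. falciparum NF54 stage V gametocytes with the serum-free one-step SaLSSA (1536-well): 72 h at 37 °C under low oxygen, then saponin lysis and MitoTracker Red CMXRos staining, with high-content imaging. Viability index = viable-object count divided by the plate mean of DMSO wells (0 = killed, about 1 = inactive).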
For `CNC(=O)C[C@@H]1CC[C@H]2[C@H](COc3ccc(NC(=O)c4ccccc4F)cc3C(=O)N2C)O1`, the viability index worked out at 1.15 ± 0.059.

`C[C@@H]1CCCCO[C@@H](CN(C)C(=O)C2CCCCC2)[C@@H](C)CN([C@@H](C)CO)C(=O)c2cc(NS(=O)(=O)c3ccccc3)ccc2O1` registered a viability index of 1.08 ± 0.023.

`O=C(NC1CCCC1)[C@@H]1[C@@H](CO)[C@@H]2Cn3c(ccc(C4=CCCCC4)c3=O)[C@H]1N2CC1CC1` displayed a viability index of 1.08 ± 0.043.

Compound `CO[C@H]1CN(C)C(=O)c2cc(NS(=O)(=O)c3cccc(Cl)c3)ccc2OC[C@@H](C)NC[C@H]1C` displayed a viability index of 1.1 ± 0.053.

`O=C(C[C@H]1CC[C@H]2[C@@H](COC[C@H](O)CN2C(=O)c2ccncc2)O1)NCc1cc(F)cc(F)c1` displayed a viability index of 1.03 ± 0.051.

`CCCNC(=O)N1CC(=O)N2[C@H](CO)[C@H](c3ccc(C#CCC4CCCC4)cc3)[C@@H]2C1`: the viability index is 0.986 ± 0.031.

Regarding `Cc1noc(C)c1S(=O)(=O)N(C)C[C@H]1OCc2cnnn2CCCC(=O)N([C@H](C)CO)C[C@@H]1C`, the viability index amounted to 1.04 ± 0.05.

For the compound `COCC(=O)N1CC[C@@]2(CC1)CN([C@H](CO)c1c2c2ccc(OC)cc2n1C)C(=O)c1ccccn1`, the viability index is 1.03 ± 0.18.

For `O=C(C[C@H]1CC[C@@H](NC(=O)C2CCOCC2)[C@H](CO)O1)NCC1CCCCC1`, the viability index was 1.03 ± 0.091.

`C[C@@H]1CN([C@H](C)CO)C(=O)CCCn2cc(nn2)CO[C@@H]1CN(C)C(=O)Nc1ccc2c(c1)OCO2` had a viability index of 1.046 ± 0.0089.

Compound `COc1ccccc1CN1[C@@H]2CNC[C@H]1[C@@H]2c1ccc(-c2cccnc2)cc1` yielded a viability index of 1.09 ± 0.1.

Turning to `CS(=O)(=O)N1Cc2cc(C(=O)NCC3CC3)nc(-c3cccc(-c4cncnc4)c3)c2[C@H]1CCO`, the viability index came to 1.046 ± 0.0077.

As to `O=C(Nc1cc(F)ccc1F)N1CC(=O)N2[C@H](CO)[C@@H](c3ccc(/C=C/c4ccccc4)cc3)[C@H]2C1`, the viability index was 1.08 ± 0.048.

`CCS(=O)(=O)Nc1ccc2c(c1)C(=O)N(C)[C@@H]1CC[C@@H](CC(=O)N[C@H]3CCN(Cc4ccccc4)C3)O[C@H]1CO2` displayed a viability index of 1.12 ± 0.038.

With `COc1ccccc1-c1ccc([C@H]2[C@@H]3CN(Cc4cccc(F)c4)C[C@H]2N3)cc1`, the viability index is 1.02 ± 0.084.

`O=C(Nc1ccccc1F)N[C@H]1CC[C@H](CCNC(=O)C2CC2)O[C@@H]1CO` returned a viability index of 1.06 ± 0.055.

For the compound `CN1C(=O)c2cc(NC(=O)c3cnccn3)ccc2OC[C@H]2O[C@@H](CC(=O)N[C@H]3CCN(Cc4ccccc4)C3)CC[C@@H]21`, the viability index was determined as 0.9678 ± 0.0058.

In the case of `CO[C@@H]1CN(C)C(=O)c2ccc(NS(=O)(=O)c3cccc(Cl)c3)cc2OC[C@@H](C)N(C(=O)Cc2cccnc2)C[C@H]1C`, the viability index is 1.06 ± 0.14.

In turn, `CCCNC(=O)N1C[C@@H]2N[C@H](C1)[C@H]2c1ccc(-c2cccc(F)c2)cc1` displayed a viability index of 1.02 ± 0.052.

As to `C[C@@H]1CN([C@@H](C)CO)C(=O)c2cc(NC(=O)Nc3cccc4ccccc34)ccc2O[C@@H](C)CCCCO[C@H]1CN(C)Cc1ccc(C(F)(F)F)cc1`, the viability index was determined as 1.08 ± 0.23.

Compound `C[C@@H]1CCCCO[C@@H](CN(C)S(=O)(=O)c2cn(C)cn2)[C@@H](C)CN([C@H](C)CO)C(=O)c2cc(N(C)C)ccc2O1` returned a viability index of 1.1 ± 0.072.

`CN(C)C(=O)C[C@H]1C[C@@H]2c3cc(NC(=O)Nc4ccc(F)cc4)ccc3O[C@@H]2[C@@H](CO)O1` gave a viability index of 1.089 ± 0.0089.

For `CS(=O)(=O)N1[C@H](C#N)[C@H](c2ccc(-c3ccccc3F)cc2)[C@@H]1CO`, the viability index is 1.141 ± 0.002.

Consider `O=C(O)C[C@@H]1C[C@H]2c3cc(NC(=O)Nc4ccc(C(F)(F)F)cc4)ccc3O[C@H]2[C@@H](CO)O1`, for which the viability index stood at 1.037 ± 0.0066.

The compound `C[C@H](CO)N1C[C@H](C)[C@H](CN(C)Cc2ccc(C(F)(F)F)cc2)OCCCC[C@H](C)Oc2ccc(NC(=O)Nc3cccc4ccccc34)cc2C1=O` returned a viability index of 1.15 ± 0.076.

`COCC(=O)Nc1ccc2c(c1)C(=O)N(C)[C@@H]1CC[C@@H](CC(=O)NC3Cc4ccccc4C3)O[C@H]1CO2` showed a viability index of 1.17 ± 0.19.

`CN1CCN(C(=O)C[C@H]2CC[C@@H]3[C@H](COC[C@H](O)CN3Cc3cccc(-c4ccncc4)c3)O2)CC1` gave a viability index of 1.08 ± 0.028.

In the case of `C[C@@H]1CN([C@H](C)CO)C(=O)c2c(c3ccccc3n2C)-c2ccccc2CO[C@@H]1CN(C)Cc1cccc(C(F)(F)F)c1`, the viability index turned out to be 0.89 ± 0.041.

As for `CN(C)C(=O)c1ccc(-c2ccc([C@H]3[C@@H]4CN(Cc5ccccc5Cl)C[C@H]3N4)cc2)cc1`, the viability index was 0.846 ± 0.021.

Consider `C/C=C/c1ccc([C@H]2[C@H]3CNC[C@@H]2N3Cc2ccc3c(c2)OCO3)cc1`, for which the viability index is 0.918 ± 0.068.

Take `CN1C(=O)c2cc(NS(=O)(=O)c3cccc(F)c3)ccc2OC[C@H]2O[C@@H](CC(=O)NCCN3CCCCC3)CC[C@@H]21`: the viability index was 1 ± 0.012.

`C[C@@H]1CN([C@@H](C)CO)C(=O)c2cc(-c3ccc(F)cc3)cnc2O[C@@H]1CN(C)S(C)(=O)=O` registered a viability index of 0.995 ± 0.18.

Regarding `CC(C)C#Cc1ccc([C@H]2[C@H]3CN(C(=O)Cc4ccccc4)CC(=O)N3[C@H]2CO)cc1`, the viability index was 1.045 ± 0.0096.

As to `CCC(=O)N1C[C@H](O)COC[C@H]2O[C@H](CC(=O)NCc3ccc(Oc4ccccc4)cc3)CC[C@@H]21`, the viability index amounted to 1.01 ± 0.046.

In turn, `C/C=C/c1ccc([C@H]2[C@H](CO)N3C(=O)CN(C(=O)Nc4ccc(F)cc4)C[C@@H]23)cc1` showed a viability index of 1.07 ± 0.067.

In turn, `COc1ccccc1C#Cc1ccc([C@H]2[C@@H](CO)N3CCCCN(C(=O)C4CCC4)C[C@H]23)cc1` returned a viability index of 0.99 ± 0.017.

Compound `Cc1noc(C)c1NC(=O)Nc1cccc2c1O[C@@H](CN(C)Cc1ccc(C(=O)Nc3ccccc3N)cc1)[C@H](C)CN([C@H](C)CO)C2=O` gave a viability index of 1.06 ± 0.029.

`COc1cccc(S(=O)(=O)N2CC[C@H]3[C@H](CO)Nc4ccc(C#Cc5cccnc5)cc4[C@H]32)c1`: the viability index was 1.11 ± 0.082.

Compound `OC[C@H]1[C@@H](c2ccc(Br)cc2)[C@@H]2CNCCCCN12` came in with a viability index of 1.008 ± 0.0039.

Consider `N#C[C@@H]1[C@H](c2ccccc2-c2ccccc2F)[C@@H](CO)N1C(=O)Cc1ccccc1`, for which the viability index was 1.041 ± 0.0077.

For `C[C@@H]1CN([C@H](C)CO)S(=O)(=O)c2ccc(C#CC3(O)CCCC3)cc2O[C@H]1CN(C)C(=O)Nc1cccc(F)c1`, the viability index came to 1.04 ± 0.069.

For the compound `C[C@@H]1CCCCO[C@@H](CN(C)C(=O)Nc2cccc3ccccc23)[C@H](C)CN([C@H](C)CO)C(=O)c2cc(NC(=O)CCC(F)(F)F)ccc2O1`, the viability index amounted to 0.878 ± 0.094.

Compound `N#C[C@H]1[C@H](c2ccccc2C2=CCCCC2)[C@@H](CO)N1S(=O)(=O)c1ccccc1` registered a viability index of 0.757 ± 0.1.

The compound `CC(C)[C@@H]1C/C=C\CCNC(=O)[C@H](C)CC(=O)N1` registered a viability index of 1.02 ± 0.048.

Compound `C[C@H]1CN([C@@H](C)CO)C(=O)c2ccccc2-c2ccccc2CO[C@@H]1CN(C)C(=O)[C@H](Cc1ccccc1)N(C)C` showed a viability index of 1.01 ± 0.074.

Compound `COc1cccc(CNC(=O)[C@@H]2[C@@H](CO)[C@@H]3Cn4c(ccc(-c5cncnc5)c4=O)[C@@H]3N2C)c1` yielded a viability index of 1.08 ± 0.046.

On to `COc1cccc(C#Cc2ccc([C@@H]3[C@@H](C#N)N(C(=O)c4ccccn4)[C@@H]3CO)cc2)c1`, for which the viability index came to 1.15 ± 0.033.

`O=C(NC1CCCCC1)N1CC(=O)N2[C@H](C1)[C@H](c1ccc(-c3ccncc3)cc1)[C@@H]2CO` gave a viability index of 0.998 ± 0.11.

As for `CN1CCN(C(=O)C[C@@H]2CC[C@@H]3[C@H](COC[C@H](O)CN3CC3CCCCC3)O2)CC1`, the viability index was 1.086 ± 0.0069.

Compound `Cc1ccccc1S(=O)(=O)Nc1ccc2c(c1)C(=O)N(C)[C@H]1CC[C@@H](CC(=O)O)O[C@@H]1CO2` came in with a viability index of 0.957 ± 0.013.

In turn, `O=C(C[C@@H]1CC[C@H]2[C@@H](COC[C@H](O)CN2Cc2cc(F)cc(F)c2)O1)Nc1nccs1` gave a viability index of 1.02 ± 0.045.

Compound `COc1ccc2c3c([C@H](CO)N(C[C@]33CN(C3)C(=O)c3cccnc3)C(=O)Nc3ccc(F)cc3)n(C)c2c1` displayed a viability index of 1.08 ± 0.059.

On to `Cc1noc(C)c1NC(=O)N(C)C[C@@H]1Oc2ccc(NC(=O)CCCN(C)C)cc2C(=O)N([C@H](C)CO)C[C@H]1C`, for which the viability index turned out to be 1.08 ± 0.1.

As for `C[C@H](CO)N1C[C@H](C)[C@@H](CN(C)C(=O)Cc2ccccc2)OCCCC[C@H](C)Oc2ccc(NS(C)(=O)=O)cc2C1=O`, the viability index was 1.101 ± 0.0013.

On to `O=C(C[C@H]1C=C[C@H](NC(=O)C2CCC2)[C@@H](CO)O1)NC1CCCCC1`, for which the viability index was determined as 1.04 ± 0.034.

In turn, `O=C(Nc1cc(F)ccc1F)N[C@H]1CC[C@@H](CC(=O)N2CCc3ccccc3C2)O[C@H]1CO` had a viability index of 1.08 ± 0.14.

Regarding `C[C@@H]1CN([C@H](C)CO)S(=O)(=O)c2ccc(-c3ccc(F)cc3)cc2O[C@H]1CN(C)Cc1ccccc1C(=O)O`, the viability index worked out at 1.03 ± 0.0058.

Consider `C/C=C/c1ccc([C@@H]2[C@@H](CO)N(C(C)=O)[C@H]2CN(CC)C(=O)CN(C)C)cc1`, for which the viability index amounted to 0.987 ± 0.056.

`C/C=C/c1ccc([C@@H]2[C@H](CO)N(C(=O)c3ccccc3)C23CN(C(C)=O)C3)cc1` gave a viability index of 1.09 ± 0.1.

The compound `CCCC(=O)Nc1ccc2c(c1)OC[C@@H](C)N(C(=O)c1cccnc1)C[C@@H](C)[C@H](OC)CN(C)C2=O` yielded a viability index of 0.992 ± 0.12.

The compound `CCC(=O)N1CC2(C1)[C@@H](c1ccccc1)[C@@H](CO)N2CC1CC1` gave a viability index of 1.08 ± 0.06.

In the case of `CO[C@H](CN(C)C(=O)Nc1ccc(Cl)cc1)[C@@H](C)CN(Cc1ccccc1Cl)[C@@H](C)CO`, the viability index was 1.03 ± 0.047.

As for `C[C@H]1C/C=C/C[C@H](c2ccc(F)cc2)NC(=O)[C@@H](Cc2ccccc2)N(C)C(=O)c2ccccc2O1.C[C@H]1C/C=C\C[C@H](c2ccc(F)cc2)NC(=O)[C@@H](Cc2ccccc2)N(C)C(=O)c2ccccc2O1`, the viability index was found to be 0.909 ± 0.037.

As for `O=C(c1ccccn1)N1CC[C@@H]2[C@@H](CO)Nc3ccc(C#Cc4cccnc4)cc3[C@@H]21`, the viability index is 1.13 ± 0.082.

For the compound `CCCNC(=O)N(C)C[C@@H]1Oc2ncc(C#CC3CCCCC3)cc2C(=O)N([C@@H](C)CO)C[C@@H]1C`, the viability index stood at 1.14 ± 0.013.

For the compound `C[C@@H]1CN([C@@H](C)CO)C(=O)Cc2cc(NC(=O)c3ccncc3)ccc2O[C@H]1CN(C)C(=O)Nc1ccc(F)cc1`, the viability index was 0.988 ± 0.11.

`C[C@@H](NC(=O)C[C@@H]1C=C[C@@H](NS(=O)(=O)c2cccc(F)c2)[C@@H](CO)O1)c1ccccc1` came in with a viability index of 1.16 ± 0.03.

Compound `CN1c2ccc(Br)cc2[C@H]2[C@H](CCN2S(=O)(=O)c2ccccc2F)[C@@H]1CO` displayed a viability index of 1.03 ± 0.049.

For the compound `O=C(Cc1cccnc1)N1CC(=O)N2[C@H](CO)[C@@H](c3ccc(C#CC4CCCCC4)cc3)[C@@H]2C1`, the viability index was found to be 1.07 ± 0.032.
